Measured values: PubChem BioAssay AID1345083 (National Center for Advancing Translational Sciences (NCATS), 2018)
“And” between values parts separate entries of the source, which are not always exact repeats. Equal entries are not always repeated. The campaign covered roughly 94,000 compounds. About 6,200 (6.6%) were called active. Inconclusive means that the source gave no clear call. Such entries were picked first, then a sample of the others. The call rests on the fitted dose curve; in most records, active means well fitted inhibition curve with a large enough effect; inconclusive means small, poorly fitted or top-dose-only effect; inactive means flat fitted curve, though single readings scatter. Where the call is inconclusive, the potency comes from a doubtful curve fit.

assay: Cytotoxic Profiling in HEK 293 Cell Line of Diverse Libraries Using Quantitative High-Throughput Screening; details: HEK 293 viability, ATP luminescence (CellTiter-Glo), 48-72 h; series mostly up to 115 µM; further: nearly all actives have a fitted effect of over 60% in size
Procedure, shortened: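 Cells seeded first (HEK 293, 250 cells/well), then compound added by pintool. Incubation ran 48 or 72 hr at 37 degree Celsius. CellTiter-Glo was added and luminescence imaged after 10 min at room temperature.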
Potency means the concentration at half of the fitted maximal effect; tags describe the fitted curve by direction and shape.

Compound	Potency
COc1ccc([C@H]2C[C@@H](O)[C@@H](O)[C@@H]2NCc2ccc(Cl)cc2)cc1	active: 100 µM
N#Cc1cccc(CN2CCc3nc(C(=O)Nc4cccc(C(F)(F)F)c4)oc3CC2)c1	inconclusive: 17.8 µM [inhibitor, full curve, poor fit]
Cc1cccc(CNC(=O)c2ccc(OC3CCN(CCc4ccccc4)CC3)cc2)n1	inconclusive: 22.4 µM [inhibitor, full curve]
O=[S+]1([O-])c2cnccc2O[C@@H](COCc2ccccc2)CN1Cc1ccccc1	inconclusive: 44.7 µM [inhibitor, single point]
CCc1nc2c(c(-c3ccc(O)cc3)n1)CN(C(=O)C1CC1)CC2	inconclusive: 126 µM [inhibitor, single point]
Cc1cccc(OCC2(CNS(=O)(=O)c3ccc(F)cc3)C[C@@H](O)[C@@H](O)C2)n1 (some centres undefined)	inactive
Cc1ccc(OCC(=O)c2ccc3c(c2)N(CC(=O)NCCc2ccccc2)C(=O)CO3)cc1	inactive
CN(C)CCNC(=O)c1cc(-c2ccccc2F)cc2c1OCCN2Cc1cccnc1	active: 63.1 µM
CN1C(=O)C(c2ccccc2)CC12CCN(Cc1ccc(F)cc1F)CC2 (centres undefined)	inconclusive: 56.2 µM [inhibitor, partial curve, poor fit]
O=C(Nc1ccc(C2(C(=O)N3CCN(c4ccccc4F)CC3)CCC2)cc1)C1CC1	inconclusive: 79.4 µM [inhibitor, single point]
COC(=O)N1CC2=CC(C)(C)COc3ccc(OC)c(c32)C1	inconclusive: 89.1 µM [inhibitor, single point]
COCCN1CCCCCC(O)c2cc(C(=O)Nc3ccc(C)cc3)ccc21 (centres undefined)	inconclusive: 89.1 µM [inhibitor, single point]
O=C(C1CC1)N1CC2(CCCN2Cc2cccnc2)Cc2ccccc21 (centres undefined)	inactive
O=C(Cc1ccccc1Cl)N1CCC(Cc2nc(-c3ccccc3)no2)CC1	inconclusive: 50.1 µM [inhibitor, partial curve, poor fit]
COc1cccc(NC(=O)Cn2c(=O)n(-c3ccccc3)c(=O)c3c2cc(C)n3C)c1	inconclusive: 35.5 µM [inhibitor, partial curve, poor fit]
Cc1cn2nc(C(=O)N3CCN(c4ccccc4F)CC3)cc2c(N2CCCC2)n1	inactive
C[S+](=O)([O-])N1CC2(Cc3ccccc31)CN(C(=O)c1ccc(C(F)(F)F)cc1)C2	inconclusive: 79.4 µM [inhibitor, partial curve, poor fit]
COc1ccc(C2Cn3nnc(-c4noc(-c5ccncc5)n4)c3CO2)cc1 (centres undefined)	inactive
COc1ccc(-c2noc([C@@H]3CCCN3C(=O)c3ccc(C)c(C)c3)n2)cc1	inconclusive: 79.4 µM [inhibitor, partial curve, poor fit]
COc1cc(CN(C)C(=O)c2c(C)noc2-c2ccc(C(C)(C)C)cc2)cc(OC)c1OC	active: 39.8 µM
CC(C)Cc1nc2nccc(-c3ccc4c(c3)OCCCO4)n2n1	inconclusive: 50.1 µM [inhibitor, partial curve, poor fit]
Cc1ccccc1CC(=O)N1CCN(C(=O)c2nnn3c2COC(c2ccc(Cl)cc2)C3)CC1 (centres undefined)	active: 28.2 µM

Compound	Potency
CN1CC(c2nc(C3CCOCC3)nn2CC(=O)O)CC1=O (centres undefined)	inactive
c1cc2c(cc1-c1noc(-c3nc(-c4ccc5c(c4)OCO5)no3)n1)OCO2	inactive
Cn1c(C(=O)N2CCNc3cnc(Nc4ccccc4)nc3C2)cc2ccccc21	inconclusive: 25.1 µM [inhibitor, full curve, poor fit]
Cc1cnc(CC2CCN(C(=O)CC3CCCC3)CC2)n1Cc1ccc(F)cc1	inconclusive: 50.1 µM [inhibitor, partial curve, poor fit]
Cc1cnc(CCNC(=O)C2CCOCC2)n1C1CCCCCCC1	inconclusive: 100 µM [inhibitor, single point]
COc1ccccc1NC(=O)Nc1cccc(-c2ccc(N3CCCCC3)nn2)c1	inconclusive: 31.6 µM [inhibitor, partial curve]
CCCC(=O)Nc1cccc(C(=O)NC(C(=O)O)c2c(C)n[nH]c2C)c1 (centres undefined)	inactive
CC(C)N1C(=O)C2(CCCCC2)C1C(=O)NCCCN1CCCc2ccccc21 (centres undefined)	active: 79.4 µM
O=C(c1ccc(Cl)s1)N1CCC(n2cc(-c3nc(-c4ccccc4)no3)nn2)CC1	inconclusive: 25.1 µM [inhibitor, partial curve, poor fit]
CC(C)CNC(=O)c1nc2sccn2c1-c1ccc(F)cc1	inconclusive: 126 µM [inhibitor, single point]
CCc1noc(-c2cccn3c(CNC(=O)c4c(F)cccc4Cl)nnc23)n1	inactive
Cc1ccc(-c2nnc(C3CN(C(=O)c4ccc(Cl)s4)CC34CCOCC4)o2)cc1 (centres undefined)	inconclusive: 89.1 µM [inhibitor, single point]
O=C(CCc1ccccc1)N1CCC(n2cc(-c3nc(-c4ccccc4)no3)nn2)C1 (centres undefined)	inconclusive: 50.1 µM [inhibitor, partial curve, poor fit]
Cn1cccc1C(=O)NCC1Cn2cccc2C(=O)N1Cc1cccnc1 (centres undefined)	inactive
CCc1nc2c(c(-c3ccc(OC)cc3)n1)CCN(Cc1ccccc1)CC2	inconclusive: 89.1 µM [inhibitor, single point]
COc1cc(OC)nc(N2C[C@H]3OC(=O)N(Cc4ccccc4OC)[C@H]3C2)n1	inconclusive: 50.1 µM [inhibitor, partial curve, poor fit]
O=S(=O)(c1cnc[nH]1)N1CCC(c2nc(CCOCC3CC3)no2)C1 (centres undefined)	inactive
COc1cccc(CN2C(=O)OC3(CCN(C(=O)c4ccn(C)n4)CC3)C2(C)c2cccnc2)c1 (centres undefined)	inactive
COc1ccc(Nc2nc(-c3cccc(OC)c3OC)no2)cc1	inconclusive: 56.2 µM [inhibitor, partial curve, poor fit]
COc1ccc(CC(=O)N2CCC(C(=O)N3CCC(c4ccccc4)CC3)CC2)cc1	inconclusive: 79.4 µM [inhibitor, partial curve]
O=C1CCN(C(=O)COc2ccc(F)cc2)CCCC(c2nc(-c3cnccn3)no2)CCN1 (centres undefined)	inactive
CNC(=O)c1cc(C2CC2)nc2onc(C3CCCN3C(=O)NC(C)C)c12 (centres undefined)	inactive

Compound	Potency
CC(C)NS(=O)(=O)c1ccc2c(c1)nc(-c1ccc(-c3ccn[nH]3)o1)n2C(C)C	inconclusive: 44.7 µM [inhibitor, partial curve, poor fit]
COc1cccc(CNC(=O)[C@@H]2C[C@@H](O)CN2C2CCN(C(=O)CCc3ccccc3)CC2)c1	inactive
COc1ccc(CN2CC[C@@](O)(C3CC3)[C@H](C)C2)cc1CN1CCCC1	inconclusive: 35.5 µM [inhibitor, full curve]
O=C1Nc2ccc(/C=C/c3ccccc3)cc2C(=O)N2C[C@H](O)C[C@@H]12	inconclusive: 112 µM [inhibitor, partial curve, poor fit]
COCc1noc([C@@H]2CN(C(=O)C3CCCCCC3)C[C@H]2CO)n1	inactive
COc1ccc(-c2cc3c(=O)n(CCNC(=O)c4ccccc4C)ccn3n2)cc1	inconclusive: 22.4 µM [inhibitor, partial curve, poor fit]
CC1=C[C@@H](CN2CCC(O)CC2)[C@H](C(C)C)C[C@H]1Cc1nnc(C(C)(C)C)o1	inconclusive: 100 µM [inhibitor, partial curve]
CC(=O)Nc1cccc(OCC2CN(Cc3cccc(C(F)(F)F)c3)C(=O)c3c(ccnc3-c3ccc(OCC(=O)O)cc3)O2)c1 (centres undefined)	inactive
COc1ccc(C(=O)N2CC(c3nnc(-c4ccc(C)cc4)o3)C3(CCOCC3)C2)c(C)c1 (centres undefined)	inconclusive: 89.1 µM [inhibitor, single point]
O=C(c1ccccc1F)N1CCn2c(nnc2-c2ccccc2)C1	inactive
CNC(=O)[C@H]1CN(C(=O)c2ccc(SC)cc2)[C@]2(C)C(=O)N(CC3CC3)c3ccccc3[C@H]12	inconclusive: 44.7 µM [inhibitor, partial curve, poor fit]
O=C(c1ccc2c(c1)OCO2)N1CC(c2noc(C3CCCN3CC3CC3)n2)C1 (centres undefined)	inactive
O=C(NCCN1CCCCC1)C1CCc2ncc(-c3ccsc3)n2C1 (centres undefined)	inconclusive: 89.1 µM [inhibitor, single point]
CCCn1cc(CNC(=O)c2cn(CCN)nn2)cn1	inconclusive: 39.8 µM [inhibitor, single point]
CCC[C@@H]1CN(C(=O)c2ccc(-c3ccc(C)o3)cc2)C[C@H]1NC(C)=O	inconclusive: 35.5 µM [inhibitor, partial curve]
CN(C)c1cccc(C(=O)Nc2cccc(-c3nnc4n3CCCC4)c2)c1	inconclusive: 56.2 µM [inhibitor, partial curve, poor fit]
O=C(NCC1CCN(Cc2ccccn2)C1)Nc1ccccc1Cl (centres undefined)	inconclusive: 89.1 µM [inhibitor, single point]
CC(=O)NC1CCN(Cc2cccc(-c3cccs3)c2)CC1	inconclusive: 100 µM [inhibitor, partial curve, poor fit] and inconclusive: 126 µM [inhibitor, single point]
O=C(C1CC(=O)N(c2n[nH]c3cccc(F)c23)C1)N1CCN(Cc2ccccc2)CC1 (centres undefined)	inconclusive: 50.1 µM [inhibitor, partial curve, poor fit]
COc1ccc(-c2cc(C(=O)NCc3cccnc3)c3c(c2)N(C)CCO3)cc1OC	inconclusive: 112 µM [inhibitor, single point]
